From article PMC7261414, “A complex comprising C15ORF41 and Codanin-1: the products of two genes mutated in congenital dyserythropoietic anaemia type I (CDA-I)” (Biochemical Journal, 2020)
Substitutions are numbered along the chain they refer to. No constants are given. Whether binding was seen depends on the method and setting. For some of these results: In cells and extracts the contact can be indirect. Some entries that bind do so weakly or less than the wild type. For some of these results: Tags and fused reporters may be left off the sequences shown. One block for each binder: values may come before it.

Assays:
[1] = molecular target: T1, GFP-tagged C15ORF41 Y94C, U2OS cells (human), Q9Y2V0; assay: co-IP; GFP-Trap affinity beads, ~0.5 mg of lysate of U2OS cells co-expressing GFP- and RFP-tagged proteins; western blotting with anti-GFP and anti-RFP; settings: remark: other sources report otherwise
T1 chain: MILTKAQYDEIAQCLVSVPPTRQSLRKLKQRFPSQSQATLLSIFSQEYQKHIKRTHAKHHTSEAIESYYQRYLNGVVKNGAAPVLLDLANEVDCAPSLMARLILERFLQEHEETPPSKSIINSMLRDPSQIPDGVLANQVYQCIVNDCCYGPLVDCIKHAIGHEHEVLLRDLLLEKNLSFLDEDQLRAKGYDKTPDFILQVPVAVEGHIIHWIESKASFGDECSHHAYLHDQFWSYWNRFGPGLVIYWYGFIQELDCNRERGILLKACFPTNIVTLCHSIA

[2] = molecular target: T2, GFP-tagged C15ORF41 L178Q, U2OS cells (human), Q9Y2V0; assay: as above; settings: remark: other sources report otherwise
T2 chain: T1 chain with C94Y, L178Q

[3] = molecular target: T3, C15ORF41, endogenous in U2OS cells (human (endogenous in U2OS)) (UniProt Q9Y2V0); assay: co-IP; endogenous proteins from U2OS extracts; in-house anti-C15ORF41 or two commercial anti-Codanin-1 antibodies with protein G beads; western blotting; non-specific (anti-GFP) IgG as control
T3 sequence: T1 chain with C94Y

[4] = molecular target: T4, GFP-tagged C15ORF41, U2OS cells (human) (UniProt Q9Y2V0); assay: co-IP; tagged GFP-C15ORF41 and RFP-Codanin-1; salt concentrations up to 1 M, RIPA buffer containing 0.1% SDS
T4 sequence: T1 chain with C94Y

[5] = molecular target: T4, GFP-tagged C15ORF41, U2OS cells (human); assay: co-IP; GFP-Trap affinity beads, ~0.5 mg of lysate of U2OS cells co-expressing GFP- and RFP-tagged proteins; western blotting with anti-GFP and anti-RFP
[6] = molecular target: T5, C15ORF41, endogenous in HEK293 cells (human (endogenous in HEK293)) (UniProt Q9Y2V0); assay: SEC; ~20 mg whole-cell HEK293 extract on Superdex 200 16/60 in 50 mM Tris pH 7.5, 150 mM NaCl, 5% glycerol, 1 mM DTT, 0.03% Brij 35; fractions blotted for C15ORF41 and Codanin-1
T5 sequence: T1 chain with C94Y

[7] = molecular target: T6, Codanin-1, endogenous in U2OS cells (human (endogenous in U2OS)) (UniProt Q8IWY9); assay: co-IP; endogenous proteins from U2OS extracts; in-house anti-C15ORF41 or two commercial anti-Codanin-1 antibodies with protein G beads; western blotting; non-specific (anti-GFP) IgG as control
T6 sequence: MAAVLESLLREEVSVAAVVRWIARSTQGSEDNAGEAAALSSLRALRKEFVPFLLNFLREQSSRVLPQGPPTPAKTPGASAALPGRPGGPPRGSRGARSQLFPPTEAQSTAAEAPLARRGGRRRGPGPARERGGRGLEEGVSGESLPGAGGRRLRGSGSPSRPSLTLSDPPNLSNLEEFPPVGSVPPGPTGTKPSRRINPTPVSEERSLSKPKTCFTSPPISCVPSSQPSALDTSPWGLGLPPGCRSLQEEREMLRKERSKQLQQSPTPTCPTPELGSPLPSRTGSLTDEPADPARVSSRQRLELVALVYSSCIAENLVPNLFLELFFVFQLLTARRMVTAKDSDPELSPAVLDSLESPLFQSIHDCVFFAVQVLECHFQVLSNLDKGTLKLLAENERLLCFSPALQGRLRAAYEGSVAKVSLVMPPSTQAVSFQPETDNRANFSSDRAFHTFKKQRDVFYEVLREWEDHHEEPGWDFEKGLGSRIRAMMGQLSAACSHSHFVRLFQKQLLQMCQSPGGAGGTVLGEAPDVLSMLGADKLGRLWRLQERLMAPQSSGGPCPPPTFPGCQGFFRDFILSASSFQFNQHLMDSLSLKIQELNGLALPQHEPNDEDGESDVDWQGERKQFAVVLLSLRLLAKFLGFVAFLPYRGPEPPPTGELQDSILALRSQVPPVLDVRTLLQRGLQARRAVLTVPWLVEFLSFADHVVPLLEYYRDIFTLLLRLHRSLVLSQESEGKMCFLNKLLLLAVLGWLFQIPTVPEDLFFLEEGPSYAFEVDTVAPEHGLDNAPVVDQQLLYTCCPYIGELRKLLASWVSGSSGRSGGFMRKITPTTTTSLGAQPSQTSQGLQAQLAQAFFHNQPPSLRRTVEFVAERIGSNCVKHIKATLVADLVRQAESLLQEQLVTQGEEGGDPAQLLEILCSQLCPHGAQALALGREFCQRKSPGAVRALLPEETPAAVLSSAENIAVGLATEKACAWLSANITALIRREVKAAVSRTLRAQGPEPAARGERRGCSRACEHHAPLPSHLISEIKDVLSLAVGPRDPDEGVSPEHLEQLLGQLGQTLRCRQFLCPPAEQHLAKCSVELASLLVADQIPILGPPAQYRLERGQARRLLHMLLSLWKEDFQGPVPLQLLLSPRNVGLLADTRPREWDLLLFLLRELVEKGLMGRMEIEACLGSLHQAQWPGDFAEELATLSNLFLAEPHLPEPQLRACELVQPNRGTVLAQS

- binding [3]: binds
B2: Codanin-1, endogenous in U2OS cells (protein, UniProt Q8IWY9 1-1227)
chain: T6 sequence

- binding [6]: binds
B4: Codanin-1, endogenous in HEK293 cells (protein, UniProt Q8IWY9 1-1227)
chain: T6 sequence

- binding [7]: binds
B5: C15ORF41, endogenous in U2OS cells (protein, UniProt Q9Y2V0 1-281)
chain: T1 chain with C94Y

Second part, the binder before the results:

B1: RFP-tagged Codanin-1, U2OS cells, Q8IWY9 1-1227 (protein)
chain: T6 sequence
- binding [1]: binds
- binding [2]: binds

B3: RFP-tagged Codanin-1, U2OS cells (protein, UniProt Q8IWY9 1-1227)
chain: T6 sequence
- binding [4]: binds
- binding [5]: binds
